From the antibiotic and cytotoxicity screens of Wong et al. (2023)
Some of the results follow.

Tests used:
HSkMC = human skeletal muscle cells; assay: cytotoxicity call (relative viability < 0.9); details: 10 µM
HepG2 = assay: cytotoxicity call (relative viability < 0.9); details: 10 µM
S. aureus RN4220 = assay: growth inhibition call (relative growth <= 0.2); details: 50 µM

Structure (SMILES)	cytotoxicity call (HSkMC)	cytotoxicity call (HepG2)	growth inhibition call (S. aureus RN4220)
COc1ccc2cc1Oc1ccc(cc1)C[C@H]1c3cc(c(OC)cc3CCN1C)Oc1c(OC)c(OC)cc3c1[C@H](C2)N(C)CC3	inactive	active	inactive
C[C@@H]1CN([C@H](C)CO)S(=O)(=O)c2ccc(C#CCN(C)C)cc2O[C@@H]1CN(C)Cc1ccccc1F	inactive	inactive	inactive
C[C@@H]1CCCCO[C@H](CN(C)CC2CC2)[C@H](C)CN([C@@H](C)CO)C(=O)c2cc(NC(=O)Nc3ccc(C(F)(F)F)cc3)ccc2O1	active	active	active
CO[C@@H](CN(C)C(=O)Nc1ccc(C(F)(F)F)cc1)[C@H](C)CN(Cc1ccccc1Cl)[C@H](C)CO	inactive	inactive	inactive
COc1ccc(NC(=O)Nc2ccc3c(c2)C(=O)N([C@@H](C)CO)C[C@@H](C)[C@H](CN(C)Cc2ccc(Cl)c(Cl)c2)OCCCC[C@@H](C)O3)cc1	inactive	inactive	inactive
C[C@@H]1CN([C@@H](C)CO)C(=O)Cc2cc(NS(=O)(=O)c3cn(C)cn3)ccc2O[C@H]1CN(C)C(=O)Nc1ccc2c(c1)OCO2	inactive	inactive	inactive
Cc1noc(C)c1S(=O)(=O)Nc1ccc2c(c1)CC(=O)N([C@@H](C)CO)C[C@H](C)[C@H](CN(C)S(=O)(=O)c1cccs1)O2	inactive	inactive	inactive
C[C@@H]1CN([C@H](C)CO)C(=O)c2cc(NS(=O)(=O)c3cccs3)ccc2O[C@@H](C)CCCCO[C@@H]1CN(C)C(=O)C1CCCCC1	inactive	inactive	inactive
COc1oc(C(=O)NC2CCCCC2)c(-c2ccc(Cl)cc2)c1S(=O)(=O)c1ccc2c(c1)OCCO2	inactive	inactive	inactive
